Measured values from PubChem BioAssay AID1259407 (Chemical Carcinogenesis Research Information System (CCRIS), 2018).
“Also recorded” adds a separate entry of the source. A number of entries come with more than one value. Only these are listed. The rule behind the calls is not given here. The source may hold further records. The records of an entry differ, and nothing given here explains why; they may come from other doses, times, organisms or constructs than stated. Marks in square brackets tell the records apart. The letters are not those of the source and start again with each entry. Brackets with × count equal records among those shown.

System: CCRIS mutagenicity, Ames/micronucleus/aberration tests
Assay: CCRIS mutagenicity studies
[1] = Test System: AMES SALMONELLA TYPHIMURIUM, Strain/Indicator: TA98, Metabolic Activation: NONE, Method: STANDARD PLATE
[2] = Test System: AMES SALMONELLA TYPHIMURIUM, Strain/Indicator: TA100, Metabolic Activation: NONE, Method: STANDARD PLATE
[3] = End Point: IN VITRO CHROMOSOMAL ABERRATIONS, Test System: CHL CELLS, Metabolic Activation: NONE

Compound: O=[N+]([O-])c1ccc2c3c(cccc13)CC2
- mutagenic call (Test System: E. COLI, Strain/Indicator: WP2 UVRA, Metabolic Activation: HAMSTER, LIVER, S-9, AROCLOR 1254, Method: STANDARD PLATE): inactive; negative and active; positive
- mutagenic call (Test System: E. COLI, Strain/Indicator: WP2 UVRA, Metabolic Activation: HAMSTER, LIVER, S-9, Method: STANDARD PLATE): inactive; negative and active; positive
- mutagenic call (Test System: E. COLI, Strain/Indicator: WP2 UVRA, Metabolic Activation: MOUSE, LIVER, S-9, AROCLOR 1254, Method: STANDARD PLATE): inactive; negative and active; positive
- mutagenic call (Test System: E. COLI, Strain/Indicator: WP2 UVRA, Metabolic Activation: MOUSE, LIVER, S-9, Method: STANDARD PLATE): inactive; negative and active; positive
- mutagenic call (Test System: E. COLI, Strain/Indicator: WP2 UVRA, Metabolic Activation: RAT, LIVER, S-9, AROCLOR 1254, Method: STANDARD PLATE): inactive; negative and active; positive

Compound: c1cc2ccc3cccc4ncc(c1)c2c34
- mutagenic call [1]: inactive; negative [study A] and active; positive [study B]
- mutagenic call [2]: inactive; negative [study A] and active; positive [study B]

Compound: O=C1c2cccc(O)c2C(=O)c2c(O)cc(CO)cc21
- mutagenic call (Test System: AMES SALMONELLA TYPHIMURIUM, Strain/Indicator: TA98, Metabolic Activation: NONE, Method: PREINCUBATION): inactive; negative [study A] and active; positive [study B]
- mutagenic call (Test System: AMES SALMONELLA TYPHIMURIUM, Strain/Indicator: TA98, Metabolic Activation: RAT, LIVER, S-9, AROCLOR 1254, Method: STANDARD PLATE): inactive; negative [study A] and active; positive [study B]

Compound: CC(C)NCC1CCc2cc(CO)c([N+](=O)[O-])cc2N1 (centres undefined)
- mutagenic call [2]: inactive; negative [study A] and active; positive [study B]

Compound: COC(=O)Nc1nc2ccc(C(=O)c3ccccc3)cc2[nH]1
- mutagenic call (Test System: AMES SALMONELLA TYPHIMURIUM, Strain/Indicator: TA100, Metabolic Activation: RAT, LIVER, S-9, AROCLOR 1254, Method: STANDARD PLATE): inactive; negative and active; positive

Compound: c1ccc2c(c1)ccc1ncccc12
- mutagenic call [3]: active; positive (structural and ploidy changes) (2×); also recorded: inactive; negative; authors report equivocal results for ploidy changes at 0.025 and 0.03

Compound: Nc1cc2c3ccccc3ccc2c2ccccc12
- mutagenic call [1]: inactive; negative [study A] and active; positive [study B]
- mutagenic call (Test System: AMES SALMONELLA TYPHIMURIUM, Strain/Indicator: TA98, Metabolic Activation: RAT, LIVER, CYTOSOL, Method: STANDARD PLATE): active; positive and inactive; negative

Compound: C[C@]12CC[C@@H]3c4ccc(O)cc4CC[C@H]3[C@@H]1CC[C@@H]2O
- mutagenic call (End Point: IN VITRO CHROMOSOMAL ABERRATIONS, Test System: HUMAN PERIPHERAL LYMPHOCYTES, Metabolic Activation: NONE): active; positive [study A] and inactive; negative [study B] and inactive; negative [study C]
- mutagenic call (End Point: IN VITRO MICRONUCLEUS, Test System: MCF-7 (HUMAN MAMMARY CARCINOMA), Metabolic Activation: NONE): active; positive and inactive; negative

Compound: CC(Cl)CCl (centres undefined)
- mutagenic call (End Point: IN VITRO CHROMOSOMAL ABERRATIONS, Test System: CHINESE HAMSTER OVARY CELLS, Metabolic Activation: NONE): inactive; negative; also recorded: active; positive; precipitation occurred at 1580 ug/ml

Compound: Nc1ccc(Cc2ccc(N)cc2)cc1
- mutagenic call (End Point: IN VITRO CHROMOSOMAL ABERRATIONS, Test System: CHO CELLS, Metabolic Activation: NONE): inactive; negative and active; positive; weak response
- mutagenic call (End Point: IN VITRO CHROMOSOMAL ABERRATIONS, Test System: CHO CELLS, Metabolic Activation: RAT, LIVER, S-9, AROCLOR 1254): active; positive; weak response (2×) and active; positive
- mutagenic call (End Point: IN VIVO MICRONUCLEUS, Test System: HEPATOCYTES, Species: RAT, Strain/Sex: FISHER 344 OR SD/MALE, Route: ORAL OR IP): inactive; negative; also recorded: inactive; negative; significant increase at 72 hr harvest

Compound: COc1cccc2c1ccc1c(C(=O)O)cc3c(c12)OCO3
- mutagenic call [1]: inactive; negative [study A] and inactive; negative [study B] and active; positive [study C]
- mutagenic call [2]: inactive; negative [study A] and inactive; negative [study B] and active; positive [study C]
- mutagenic call (Test System: AMES SALMONELLA TYPHIMURIUM, Strain/Indicator: TA1537, Metabolic Activation: NONE, Method: STANDARD PLATE): inactive; negative [study A] and active; positive [study B]

Compound: COc1cc(N=Nc2ncc([N+](=O)[O-])s2)c(NC(C)=O)cc1N(CCOC(=O)OCC(C)C)CCOC(=O)OCC(C)C
- mutagenic call [3]: active; positive (ploidy changes); precipitation occurred at all doses except the lowest; also recorded: active; positive (ploidy changes)
